42 compounds from ChEMBL document CHEMBL4888484, “Replenishing the malaria drug discovery pipeline: Screening and hit evaluation of the MMV Hit Generation Library 1 (HGL1) against asexual blood stage Plasmodium falciparum ,using a nano luciferase reporter read-out” (2022) can be followed below.

SMILES strings stand for the structures. Hit rate of the full screen: of about 150,000 compounds, about 540 (0.36%) showed an effect of 50% or more. The list shows a part of the results.

The test system of this assay is Plasmodium falciparum. Briefly: Primary screen in NF54 nanoGlo assay, in single point, at 2uM, 72h; a lower Z score goes with more inhibition. Format: functional, Erythrocyte. Particulars: timepoint 72 hour.
One may read the % Inhibition as the relative decrease from the control value, in per cent. On to `COc1cccc(CN2CCN(C)C2=O)c1OC`, for which the “% Inhibition” value is given as -5% and the Z score is reported as 0.94.
For `COc1ccc(C2=NN=C(n3nc(C)c(-c4ccc(OC)cc4)c3N)c3ccccc3C2)cc1` the same measures were 5% and -0.64.
On the same counts, the results for `CC1(C)CCC(C(=O)NC2CCC23CCCC3)O1` (centres undefined) are 2% and -0.37.
For `NC(=O)c1c(NC(=O)CN2CCCCCC2)sc2c1CCCC2` the same measures were -11% and 2.12.
For the compound `Cn1c(COc2cccc3ccccc23)c(C#N)c2ccccc21`, the “% Inhibition” value was -40% and the Z score is on record as 4.75.
In the case of `CC[C@@H]1Oc2ccc(Cl)cc2N(CC(=O)Nc2ccc3sc(NC(C)=O)nc3c2)C1=O`, the “% Inhibition” value is recorded as -7% and the Z score worked out at 0.87.
`Cc1ccc(C)n1CC(=O)Nc1ncn[nH]1`: the “% Inhibition” value is 2% and the Z score is recorded as -0.3.
For `O=C(C[C@H]1CCOC1)NCCCC1CCCC1` the same measures were -12% and 2.28.
On the same counts, the results for `Cn1cnc2c1CCN(C[C@H](O)c1ccccc1F)C2` are -4% and 0.59.
Turning to `COCCCNC(=O)[C@@H]1CC2(CCN(C(=O)c3ccc(C)cc3C)CC2)C(=O)N1C`, the “% Inhibition” value amounted to 7% and the Z score is -0.81.
For `CCc1ccccc1S(=O)(=O)N1CCC[C@](CC2CC2)(C(N)=O)C1` the same measures were -8% and 1.03.
For the compound `COc1cc(N(CC(N)=O)S(C)(=O)=O)c(OC)cc1Cl`, the “% Inhibition” value is -8% and the Z score is 1.12.
With `CN1CCN(c2ccc(NC[C@]3(c4ccc(F)cc4)CCOC3)cc2)C1=O`, the “% Inhibition” value amounted to 4% and the Z score is -0.59.
Regarding `Cc1csc(=O)n1CCCC(=O)Nc1nc(-c2ccc(F)cc2Cl)cs1`, the “% Inhibition” value is 4% and the Z score was -0.5.
On the same counts, the results for `C[C@@H](CN=C(N)N1CCOCC1)COCc1ccccc1` are 0% and 0.05.
On the same counts, the results for `Cn1c(=O)n(C)c2c1ccn1cnnc21` are 7% and -0.93.
For `COc1ccc2c(c1)CCCC21NC(=O)N(CC(O)COc2cc(Cl)ccc2Cl)C1=O` (centres undefined) the same measures were 7% and -1.28.
Turning to `CN(C)Cc1ccccc1CN(C)c1cc([C@H]2CCOC2)nc(N)n1`, the “% Inhibition” value is given as 3% and the Z score is on record as -0.39.
On the same counts, the results for `CCCS(=O)(=O)NCc1cncc(-c2ccsc2)c1` are -13% and 2.01.
Take `Cc1cc(C(=O)N2CCC(NC(=O)c3ccncc3)CC2)c(C)o1`: the “% Inhibition” value is -7% and the Z score worked out at 1.09.
On the same counts, the results for `O=C(Nc1cccc2ncccc12)c1ccc(-n2cccn2)nc1` are 6% and -0.71.
Turning to `Cc1ccc(-c2cc(C(=O)NCc3cccnc3)c(C)o2)cc1`, the “% Inhibition” value is 5% and the Z score is -0.54.
For `O=C(CN1CCCN(C(=O)c2cc(Cl)c(Cl)[nH]2)CC1)N1CCCC1` the same measures were -6% and 0.8.
As for `O=C1[C@H]2CN(Cc3cc(F)cc(F)c3)C[C@H]2C(=O)N1Cc1ccc2c(c1)OCO2`, the “% Inhibition” value is on record as -5% and the Z score is 0.62.
For `CN(c1ccccc1)c1nnc(-c2ccc(NC(=O)c3ccco3)cc2)s1` the same measures were -8% and 1.1.
On the same counts, the results for `O=S1(=O)CCCC(NS(=O)(=O)[C@H]2C[C@@H]2c2ccccc2)C1` (some centres undefined) are 0% and 0.
On the same counts, the results for `Cc1cnn(CC(=O)NC2(c3noc([C@H]4CCOC4)n3)CCCCCC2)c1` are -4% and 0.74.
For the compound `CC(C)c1nnc(N2CCC3(CCC(=O)N(CCN(C)C)C3)CC2)s1`, the “% Inhibition” value worked out at 0% and the Z score is on record as -0.06.
Turning to `CCOC1CC(NC(=O)NCCN(C)C2CC2)C12CCC2` (centres undefined), the “% Inhibition” value amounted to 0% and the Z score came to 0.06.
With `O=C1C[C@]2(C(=O)Nc3ccc(F)cc32)c2cnn(Cc3ccc(Cl)cc3)c2N1`, the “% Inhibition” value amounted to 33% and the Z score is listed as -3.76.
For `COc1ccnc(CNC(=O)NCc2ccc(S(C)(=O)=O)s2)c1F`, the “% Inhibition” value was 14% and the Z score is recorded as -1.75.
For `CC(C)=CCN=C(N)N1CCC[C@H](C)C1` the same measures were -9% and 1.18.
On the same counts, the results for `C[C@@H](C(=O)N1CCn2cnnc2C1)N(C(=O)OC(C)(C)C)C1CC1` are 5% and -0.6.
For `Cc1nc(N2CCC(c3ncc[nH]3)CC2)c2ccsc2n1` the same measures were -9% and 1.45.
With `CCC(C)C(=O)NCC(=O)NC1C(C)CCCC1C` (centres undefined), the “% Inhibition” value came to 10% and the Z score is listed as -1.49.
`CC(C)N1CCN(C[C@]2(O)CCCN(CC3CCCCC3)C2=O)CC1`: the “% Inhibition” value worked out at 0% and the Z score was -0.03.
On the same counts, the results for `C[C@@H](c1nnc(-c2cccs2)o1)N(C)CCOc1ccc(O)cc1` are -11% and 1.42.
For `CC[C@H](C)N(C/C=C/c1ccccc1)Cc1cnc(C)cn1` the same measures were -13% and 1.42.
For `CC[C@H](C)Oc1ccccc1CN1CCn2nc(C#N)cc2C1` the same measures were -9% and 0.88.
In the case of `CCOC(=O)C1(NCC(=O)NC(=O)NC(C)(C)C)CCCCC1`, the “% Inhibition” value was -10% and the Z score is 1.16.
For `CCc1ccc(CN2CCN(C(=O)c3coc(-c4ccccc4)n3)CC2)s1` the same measures were -4% and 0.63.
For `COc1cccc(CN2C(=O)c3cc(C4CC4)nn3C[C@@]2(C)C(=O)NC2CCCCCC2)c1OC` the same measures were 0% and -0.06.
